Measured values as given in PubChem BioAssay AID504332 (National Center for Advancing Translational Sciences (NCATS), 2011).
In all, about 350,000 compounds went through this assay and about 31,000 (8.9%) were called active. Inconclusive means that the source gave no clear call. Such entries were picked first, then a sample of the others. Calls come from the whole dose curve; as a rule, active = well fitted inhibition curve with a large enough effect; inconclusive = small, poorly fitted or top-dose-only effect; inactive = no such curve, though single readings can be large or run the other way. A potency beside an inconclusive call is a rough fit, not a confirmed value.
% is set by controls: 0 for no effect and ±100 for the full control effect; potency is the fitted concentration of half-maximal effect; tags give direction and shape of the fitted curve.
Note: nearly all actives have a fitted effect of over 75% in size.

What follows are compounds tested against Histone-lysine N-methyltransferase EHMT2 (Homo sapiens) (UniProt Q96KQ7) (assay: qHTS Assay for Inhibitors of Histone Lysine Methyltransferase G9a). Settings: G9a H3K9 monomethylation, AlphaScreen, 2 h; activity, negative = inhibition: at 59 µM (top of the series) unless noted.
Sequence of UniProt Q96KQ7 (Q96KQ7 whole entry, looked up): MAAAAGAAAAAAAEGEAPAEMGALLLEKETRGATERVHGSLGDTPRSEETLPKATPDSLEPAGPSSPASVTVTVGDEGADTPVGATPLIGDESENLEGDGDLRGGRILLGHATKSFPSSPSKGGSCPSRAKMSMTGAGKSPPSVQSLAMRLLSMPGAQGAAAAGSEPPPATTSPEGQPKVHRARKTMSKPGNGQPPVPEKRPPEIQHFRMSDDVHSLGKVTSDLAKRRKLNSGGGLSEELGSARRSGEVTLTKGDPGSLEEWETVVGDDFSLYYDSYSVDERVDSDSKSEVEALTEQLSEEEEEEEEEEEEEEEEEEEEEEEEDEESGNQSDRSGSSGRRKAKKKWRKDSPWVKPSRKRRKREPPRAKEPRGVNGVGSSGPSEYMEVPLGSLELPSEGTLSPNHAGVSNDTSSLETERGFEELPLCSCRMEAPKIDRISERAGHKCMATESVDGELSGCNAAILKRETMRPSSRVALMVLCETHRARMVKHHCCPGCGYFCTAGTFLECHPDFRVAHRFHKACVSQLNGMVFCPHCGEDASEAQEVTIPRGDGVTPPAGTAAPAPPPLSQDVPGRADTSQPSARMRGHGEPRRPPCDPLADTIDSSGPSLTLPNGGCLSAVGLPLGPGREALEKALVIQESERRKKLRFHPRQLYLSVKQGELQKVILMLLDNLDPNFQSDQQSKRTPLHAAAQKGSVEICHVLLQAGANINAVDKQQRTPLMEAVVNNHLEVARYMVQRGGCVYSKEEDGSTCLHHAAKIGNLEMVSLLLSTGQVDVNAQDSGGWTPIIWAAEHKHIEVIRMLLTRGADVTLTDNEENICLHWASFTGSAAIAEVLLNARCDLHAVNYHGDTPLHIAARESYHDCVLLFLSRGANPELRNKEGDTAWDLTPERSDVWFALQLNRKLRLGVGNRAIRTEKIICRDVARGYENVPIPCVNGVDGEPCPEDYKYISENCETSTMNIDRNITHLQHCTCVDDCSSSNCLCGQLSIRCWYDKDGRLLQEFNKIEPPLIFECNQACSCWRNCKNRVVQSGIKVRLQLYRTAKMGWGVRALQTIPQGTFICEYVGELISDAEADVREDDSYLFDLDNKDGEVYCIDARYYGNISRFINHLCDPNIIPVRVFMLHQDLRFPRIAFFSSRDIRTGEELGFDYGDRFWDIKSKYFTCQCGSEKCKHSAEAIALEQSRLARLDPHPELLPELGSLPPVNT
Method in brief: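 AlphaScreen read-out: biotin-H3K9 peptide (500 nM) methylation by 20 nM enzyme with 20 uM SAM, 2 h at room temperature after 15 min compound preincubation; anti-monomethyl H3K9 antibody plus donor/acceptor beads, 10 min dark.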
For `CC(=O)C1=C(O)C(=O)N(CCc2c[nH]c3ccccc23)C1c1ccccc1` (stereo unspecified), the Potency was inconclusive: 15.8 µM [inhibitor, full curve].
In the case of `CN(CC(=O)Nc1ccccc1Br)C(=O)CCCSc1nc2ccccc2[nH]1`, the Potency is reported as inconclusive: 56.2 µM [inhibitor, partial curve, poor fit].
With `Cc1ccc(N=C/C(C(=O)C(F)(F)F)=C(\O)c2ccco2)cc1Cl` the Potency was active: 44.7 µM.
With `Cc1c(N(C)C(=O)c2ccco2)c(=O)n(-c2ccccc2)n1C` the “activity, negative = inhibition” value was inactive: -40.2% [at 102 µM].
For `O=C(Nc1ccccc1)N1CC[C@@]2(CCCN(C(=O)c3cnccn3)C2)C1`, the Potency was inconclusive: 0.708 µM [inhibitor, full curve, poor fit].
In the case of `CCC(=O)Nc1ccc(NC(=S)NC(=O)Cc2ccccc2)cc1`, the Potency is reported as inconclusive: 25.1 µM [inhibitor, single point].
With `O=C1CCC(C(=O)N2CCC(O)(c3ccccc3)CC2)CN1CCc1ccccc1` (stereo unspecified) the Potency was inconclusive: 17.8 µM [inhibitor, partial curve].
In the case of `O=C1C2CC=CCC2C(=O)N1c1ccc(N2CCN(c3ccccn3)CC2)c([N+](=O)[O-])c1` (stereo unspecified), the Potency is reported as inconclusive: 50.1 µM [inhibitor, single point].
In the case of `O=C(O)CSc1nnc(-c2ccccc2)o1`, the Potency is reported as inconclusive: 4.47 µM [inhibitor, partial curve, poor fit].
For `CCc1ccc(NC(=O)Cn2cnc3c(=O)n(C)c(=O)n(C)c32)cc1`, the Potency was inconclusive: 15.8 µM [inhibitor, partial curve].
With `COC(=O)c1ccc(CSc2nc(C(F)(F)F)c3c(c2C#N)CCC3)o1` the activity, negative = inhibition was inactive: 21% [at 0.0925 µM].
In the case of `CSc1nc(C)cc(Nc2c(C)cc(C)cc2C)n1`, the “activity, negative = inhibition” value is reported as inactive: -3.66%.
For `CCOC(=O)c1ccccc1NC(=O)N1CCn2c(C)ccc2C1CC` (stereo unspecified), the Potency was active: 22.4 µM.
For `CCCCCOc1ccc(Cn2ccnc2)cc1[N+](=O)[O-]`, the Potency was inconclusive: 39.8 µM [inhibitor, single point].
For `CCOC(=O)CSc1n[nH]c(NC(=O)CC)n1`, the Potency was inconclusive: 79.4 µM [inhibitor, partial curve].
For `CC(CN1CCC(n2nccc2NC(=O)C2CCCC2)CC1)c1ccccc1` (stereo unspecified), the “activity, negative = inhibition” value was inactive: 39.2% [at 102 µM].
With `CCCCn1c(N)c(N(CCOC)C(=O)c2ccco2)c(=O)[nH]c1=O` the Potency was inconclusive: 39.8 µM [inhibitor, partial curve, poor fit].
With `CCc1ccc(Nc2n[n+](-c3ccccc3)c(-c3cccc(Cl)c3Cl)s2)cc1` the activity, negative = inhibition was inactive: 10.7% [at 2.33 µM].
In the case of `CC(=O)C1=C(C)NC(SCC(=O)c2ccc(Cl)cc2Cl)=C(C#N)C1c1ccco1` (stereo unspecified), the Potency is reported as inconclusive: 39.8 µM [inhibitor, single point].
With `COc1cccc(N/N=C(\C#N)S(=O)(=O)C(C)(C)C)c1` the Potency was inconclusive: 50.1 µM [inhibitor, partial curve].
In the case of `COc1ccnc(CSC(N)=Nc2cccc(C(F)(F)F)c2)c1`, the Potency is reported as active: 44.7 µM.
In the case of `Cc1nc(NC(=O)CC(C)C)sc1-c1csc(Nc2ccc(Cl)cc2)n1`, the activity, negative = inhibition is reported as inactive: 31.9% [at 0.501 µM].
In the case of `CCN1CCN(c2ccc(NC(=O)COc3ccccc3Cl)cc2)CC1`, the “activity, negative = inhibition” value is reported as inactive: -26.3% [at 102 µM].
For `CCOC(=O)c1c(C)[nH]c(C(=O)CN2C(=O)NC(C)(C)C2=O)c1C`, the Potency was inconclusive: 56.2 µM [inhibitor, partial curve, poor fit].
In the case of `O=C(NCC1CCCO1)C1CCCN1C(=O)Nc1ccc(Cl)c(Cl)c1` (stereo unspecified), the “activity, negative = inhibition” value is reported as inactive: -9.18% [at 102 µM].
`CCC(C)[C@@H](C(=O)N1CCNCC1)n1cc(CCCCN)nn1` (stereo partly specified) was tested, and the activity, negative = inhibition was inconclusive: -81% [inhibitor].
For `Cc1ccc(Cl)cc1NC(=O)COC(=O)c1ccc(COc2ccc3c(C)cc(=O)oc3c2)cc1`, the Potency was inconclusive: 8.91 µM [inhibitor, single point].
For `COC(=O)c1ccc(NC(=O)COc2coc(CN3CCc4ccccc43)cc2=O)cc1`, the “activity, negative = inhibition” value was inactive: -5.02% [at 102 µM].
For `CCOC(=O)C1CCCN(C(=O)c2cn(CC)c3ccc(S(=O)(=O)N(C)C)cc3c2=O)C1` (stereo unspecified), the “activity, negative = inhibition” value was inactive: -16.8% [at 102 µM].
For `O=C(CN(C(=O)CCC(=O)Nc1ccccn1)c1ccc(F)cc1)NCc1ccco1`, the “activity, negative = inhibition” value was inactive: 0.706% [at 102 µM].
In the case of `COc1ccccc1CNC(=O)COc1ccc(S(=O)(=O)N2CCOCC2)cc1C`, the “activity, negative = inhibition” value is reported as inactive: 2.5% [at 102 µM].
With `CCOC(=O)N1CCC(NC(=O)c2cc3c(=O)n(C)c4ccccc4c3n2C)CC1` the Potency was inconclusive: 79.4 µM [inhibitor, single point].
`C=Cc1ccc(Cn2c(C(=O)O)c(CNCc3cccs3)c3ccc(C)cc32)cc1` was tested, and the Potency was inconclusive: 3.55 µM [inhibitor, full curve, poor fit].
In the case of `O=C(CCSCc1cnn(-c2ccccc2)c1-n1cccc1)NCc1ccccc1F`, the Potency is reported as inconclusive: 39.8 µM [inhibitor, partial curve, poor fit].
For `CCOc1ccc(NC(=O)c2cc3c(-c4ccccc4F)nn(C)c3s2)cc1`, the “activity, negative = inhibition” value was inactive: 22.9%.
With `CN(C)c1ccc(N=Cc2cccn2C)cc1` the Potency was active: 8.91 µM.
For `COc1ccc(OCC2c3cc(OC)c(OC)cc3CCN2C(=O)c2ccc(F)cc2)cc1` (stereo unspecified), the Potency was inconclusive: 25.1 µM [inhibitor, partial curve, poor fit].
`OCCN(Cc1ccccc1)Cc1cccc(Cl)c1Cl` was tested, and the Potency was inconclusive: 0.708 µM [inhibitor, full curve, poor fit].
In the case of `CC(=O)c1ccc(NC(=O)C(C)OC(=O)CCCN=C2NS(=O)(=O)c3ccccc32)cc1` (stereo unspecified), the Potency is reported as inconclusive: 89.1 µM [inhibitor, partial curve, poor fit].
For `COc1ccc(Nc2nc(N)nc(CSC(=S)N3CCCCC3C)n2)cc1` (stereo unspecified), the Potency was inconclusive: 63.1 µM [inhibitor, single point].
`Nc1nc2sc3c(c2cc1C(=O)N1CCOCC1)CCCC3` was tested, and the Potency was inconclusive: 28.2 µM [inhibitor, single point].
In the case of `CC1(C)CC(=O)c2cnc(NC3CC3)nc2C1`, the Potency is reported as inconclusive: 1.58 µM [inhibitor, partial curve, poor fit].
With `COc1ccc(CC(=O)OCC(=O)Nc2ccc3[nH]c(=O)[nH]c3c2)cc1` the Potency was inconclusive: 28.2 µM [inhibitor, single point].
In the case of `CCOC(=O)c1ccc(NC(=O)c2c(NCc3cccs3)sc3c2CCCCC3)cc1`, the Potency is reported as active: 7.94 µM.
`COC(=O)c1[nH]c2cccc(C)c2c1NC(=O)CN1CCCc2ccccc21` was tested, and the Potency was inconclusive: 12.6 µM [inhibitor, partial curve, poor fit].
With `CCN1CCN(CCOc2ccc(Br)cc2C)CC1` the Potency was active: 7.94 µM.
For `Nc1sc2c(c1C(=O)c1ccccc1)CCCC2`, the Potency was inconclusive: 25.1 µM [inhibitor, single point].
With `Cc1ccc(C2NC(=O)c3ccccc3O2)cc1` (stereo unspecified) the “activity, negative = inhibition” value was inactive: -2.52% [at 102 µM].
For `CC1CCCCN1CCNC(=O)c1cc2c(=O)n(C)c3ccccc3c2n1C` (stereo unspecified), the Potency was inconclusive: 100 µM [inhibitor, single point].
With `CCOc1ccc(NC(=O)CN(C)C(=O)c2ccc3nc(CC)c(CC)nc3c2)cc1OCC` the Potency was active: 50.1 µM.
In the case of `O=C(c1ccc(S(=O)(=O)N2CCCCC2)cc1)N1CCN(CCN2C(=O)c3cccc4cccc(c34)C2=O)CC1`, the Potency is reported as inconclusive: 89.1 µM [inhibitor, single point].
For `COc1ccc(N2C(=O)CC(Sc3ccccc3C(=O)O)C2=O)c([N+](=O)[O-])c1` (stereo unspecified), the Potency was active: 0.316 µM.
`COc1cccc(CSc2nc3n(n2)C(c2cccs2)C(C(=O)Nc2ccccc2C)=C(C)N3)c1` (stereo unspecified) was tested, and the “activity, negative = inhibition” value was inactive: 4.95%.
`Cc1c(Cl)cccc1NC(=S)NCc1cccn1C` was tested, and the Potency was inconclusive: 89.1 µM [inhibitor, single point].
In the case of `CN(CCOc1ccccc1)CC(O)COCc1ccccc1F` (stereo unspecified), the Potency is reported as active: 10 µM.
`COc1ccc(C(=O)OCC(=O)NC23CC4CC(CC(C4)C2)C3)c(OC)c1OC` was tested, and the “activity, negative = inhibition” value was inactive: 10.1%.
For `O=C(O)CN1C(=O)/C(=C\C(Br)=C\c2ccccc2)SC1=S`, the activity, negative = inhibition was inactive: 40.9% [at 0.501 µM].
For `CC(NC(=O)c1ccc(OC2CCN(Cc3ccccn3)CC2)cc1)c1ccccc1` (stereo unspecified), the Potency was inconclusive: 39.8 µM [inhibitor, single point].
In the case of `CCOC(=O)C1(CC2CC2)CCN(C(=O)c2cc(C)nc3ccc(CC)cc23)CC1`, the Potency is reported as inconclusive: 39.8 µM [inhibitor, partial curve, poor fit].
`Cc1ccc(OCCn2cc(C(=O)C3CCCCC3)c3ccccc32)cc1` was tested, and the “activity, negative = inhibition” value was inactive: 36.8%.
In the case of `CCC(C)C(=O)Nc1nc(-c2ccc3c(c2)NC(=O)CO3)cs1` (stereo unspecified), the activity, negative = inhibition is reported as inconclusive: -59.2% [inhibitor].
In the case of `CCSc1nnc(NC(=O)c2ccccn2)s1`, the Potency is reported as inconclusive: 1.58 µM [inhibitor, partial curve, poor fit].
`COc1ccc(C)cc1Nc1nc(-c2c(C)[nH]c3ccccc23)cs1` was tested, and the Potency was inconclusive: 12.6 µM [inhibitor, partial curve, poor fit].
With `O=C(COc1ccc(Cl)cc1)Nc1ncc([N+](=O)[O-])s1` the Potency was inconclusive: 50.1 µM [inhibitor, partial curve, poor fit].
In the case of `COc1ccc(NC(=O)Cn2nc([N+](=O)[O-])c(Cl)c2C)cc1OC`, the “activity, negative = inhibition” value is reported as inactive: -0.689% [at 102 µM].
In the case of `O=C(c1ccc(Cl)cc1)N1CCC(C(=O)N2CCCc3ccccc32)CC1`, the activity, negative = inhibition is reported as inactive: 11.3% [at 0.501 µM].
`O=C(CCc1ccccc1)NC1C2CC3CC(C2)CC1C3` (stereo unspecified) was tested, and the “activity, negative = inhibition” value was inactive: 21.6% [at 102 µM].
With `Cc1cc(C)c(S(=O)(=O)N2CCCC(C(=O)NC3CCCC3)C2)c(C)c1` (stereo unspecified) the “activity, negative = inhibition” value was inactive: 7.57% [at 102 µM].
In the case of `CCOC(=O)c1ccc(NC(=O)CC2C(=O)N(c3cccc(OC)c3)C(=O)N2C2CCCCC2)cc1` (stereo unspecified), the “activity, negative = inhibition” value is reported as inactive: -29%.
In the case of `COc1ccc(C2=CC(=O)OC(C)(c3ccccc3)O2)cc1` (stereo unspecified), the Potency is reported as inconclusive: 17.8 µM [inhibitor, single point].
With `CCCCCC(=O)Nc1sc(C)c(C)c1C#N` the Potency was active: 3.16 µM.
